Laboratory results as given in PubChem BioAssay AID1346428 (National Center for Advancing Translational Sciences (NCATS), 2018).
Among all 48,000 compounds or so, about 1,200 (2.5%) were called active. Not shown: some 2% with an inconclusive outcome.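 The calls were made as follows: active = activation of at least 60% and not above a set upper limit (about 1 call in 100 departs from these limits); inconclusive = activation of 40% to 60%, or above that upper limit; inactive = activation under 40%.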 The list shows a part of the results.

What follows are molecules tested against Probable G-protein coupled receptor 32 (Homo sapiens) (UniProt O75388) (assay: qHTS for Agonists of Human Resolvin D1 Receptor DRV1). Conditions: CHO-K1 GPR32 beta-arrestin PathHunter luminescence, 90 min; at 76.9 µM; stronger effect = higher value; zero percent set by DMSO-only wells.
Chain of UniProt O75388 (O75388 whole entry, looked up, the tested form may be a part): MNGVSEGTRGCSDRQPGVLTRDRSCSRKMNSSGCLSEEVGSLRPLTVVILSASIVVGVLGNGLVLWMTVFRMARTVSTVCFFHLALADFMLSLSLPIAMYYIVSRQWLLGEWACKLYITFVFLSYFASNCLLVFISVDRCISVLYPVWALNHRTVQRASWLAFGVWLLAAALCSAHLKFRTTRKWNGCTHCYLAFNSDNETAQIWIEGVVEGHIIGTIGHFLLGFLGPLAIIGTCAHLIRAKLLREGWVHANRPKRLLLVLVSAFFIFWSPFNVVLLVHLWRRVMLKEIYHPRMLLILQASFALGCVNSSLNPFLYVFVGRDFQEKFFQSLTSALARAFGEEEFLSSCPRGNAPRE
Method in brief: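 Agonism was scored as beta-arrestin recruitment to ProLink-fused GPR32 in stably transfected CHO-K1 cells, giving a chemiluminescent beta-Gal signal; compounds were incubated 90 min at 37 °C.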
Also: 0% is about no effect.

| SMILES | activation |
| --- | --- |
| Cc1ccc(NC(=O)CN2C(=O)C(c3ccc(C(C)(C)C)cc3)=NC2(C)C)cc1 | inactive: -8.15% |
| Cc1cc(C)cc(-n2c(SCC(=O)Nc3cccc(F)c3)nc3c([nH]c4ccccc43)c2=O)c1 | inactive: 4.76% |
| COc1ccc(N2CCN(C(=O)COc3ccccc3C#N)CC2)cc1 | inactive: -7.12% |
| Cc1ccc(C(=O)Nc2ccc(-c3nc4ccccc4o3)cc2)cc1Cl | inactive: -6.7% |
| Brc1ccc(Nc2c3c(nc4nncn24)CCC3)cc1 | inactive: -18.7% |
| COc1ccc(OC)c(NC(=O)Cn2c(=O)n(Cc3ccco3)c(=O)c3cc(OC)c(OC)cc32)c1 | inactive: 19.8% |
| Cc1ccc(C)c(NC(=O)C(Cc2ccccc2)n2cccc2)c1 (stereo unspecified) | inactive: -15.4% |
| Cc1ccc(NC(=O)C2CCC(CNS(=O)(=O)c3ccc4c(c3)CCCC(=O)N4)CC2)cc1F (stereo unspecified) | inactive: 11.5% |
| COCCNc1nc2c(c(=O)n(Cc3cccc(Cl)c3)c(=O)n2C)n1C | inactive: -2.6% |
| CCc1ccc(NC(=O)C2=C(C)C(=O)OC23CCCCC3)cc1 | inactive: -24.3% |
| COc1ccc(OCC(=O)Nc2c(C(=O)N3CCN(c4ccccc4)CC3)oc3ccccc23)cc1 | inactive: -5.61% |
| COc1ccc2c(c1)c1c(c(=O)n(Cc3ccccc3)c(=O)n1Cc1ccccc1Cl)n2C | inactive: -0.87% |
| O=C(NCc1ccc(F)cc1)c1cc2cccc3c2n1CCS3 | inactive: -21.9% |
| O=C(O)c1cccc(NC(=O)c2cc3cc(Br)cc(Br)c3oc2=O)c1 | inactive: -6.84% |
| CCOC(=O)c1c(-c2ccc(OC)c(OC)c2)csc1NC(=O)c1ccc(C)cc1 | inactive: 26.5% |
| CCCCNc1oc(-c2ccc(COc3ccccc3C)o2)nc1C#N | inactive: -17.9% |
| COC(=O)c1ccc(NC(=O)C(=O)NCC(c2cccnc2)N2CCN(c3ccccc3)CC2)cc1 (stereo unspecified) | inactive: -9.64% |
| CCOC(=O)c1cc(-c2ccccc2)n(CCC(=O)NCCc2cccc(C)c2)c1C | inactive: -31.1% |
| COc1ccc(S(=O)(=O)NCCc2sc3nc(-c4ccc(C)cc4)nn3c2C)cc1C | inactive: -9.25% |
| COc1ccc(S(=O)(=O)N(CC(=O)NCCSc2ccccc2)c2ccc(C)cc2)cc1 | inactive: -9.99% |
| CC(=O)c1cccc(NC(=O)Cc2ccc(NC(=O)N3CCCCc4ccccc43)cc2)c1 | inactive: -2.44% |

| SMILES | activation |
| --- | --- |
| Cc1oc(-c2ccc(Cl)cc2)nc1CS(=O)CC(=O)NCCc1ccccc1 (stereo unspecified) | inactive: -0.66% |
| Cc1ccc(Nc2c3c(nc4nc(-c5cccs5)nn24)CCCC3)cc1F | inactive: -23.8% |
| COc1ccc(N2C(=O)CSC23C(=O)N(Cc2cccc(C(F)(F)F)c2)c2ccccc23)cc1 (stereo unspecified) | inactive: -5.97% |
| CCOc1ccc2oc(=O)cc(CN3CCN(Cc4ccc(C)cc4)CC3)c2c1 | inactive: -12.6% |
| CCN(CC)CC(=O)OCC(=O)[C@@]1(O)CC[C@H]2[C@@H]3CCC4=CC(=O)CC[C@]4(C)[C@H]3[C@@H](O)C[C@@]21C | inactive: 8.8% |
| COc1ccccc1OCC(=O)N(Cc1cccs1)C1CCS(=O)(=O)C1 (stereo unspecified) | inactive: -8.71% |
| Cc1ccc(S(=O)(=O)c2nc(-c3cccs3)oc2SCC(=O)Nc2cc(C)cc(C)c2)cc1 | inactive: -22.3% |
| COc1ccc(S(=O)(=O)NC(C)(C)C)cc1-c1nnc2c3ccccc3c(C)nn12 | inactive: -7.63% |
| COc1ccccc1CNc1nc(-c2ccco2)nn1S(C)(=O)=O | inactive: -23.9% |
| Cc1cccc(Cn2c(=O)n(CCCC(=O)NCc3ccccc3Cl)c(=O)c3ccccc32)c1 | inactive: -10.4% |
| CCOC(=O)Cn1nc(C)c(NC(=O)COc2ccccc2)c1C | inactive: 2.85% |
| COc1cc(OC)c(NS(=O)(=O)c2c(C(=O)N3CCCCCC3)c(C)n(C)c2C)cc1Cl | inactive: -6.31% |
| Cc1cc(-c2ccc(C)c(S(=O)(=O)Nc3ccccn3)c2)on1 | inactive: -1.48% |
| COc1ccc(-n2cc(-c3ccccc3)nc2SCC(=O)Nc2ccccc2C)cc1 | inactive: -26.5% |
| Cc1ccc(CNc2nc3ccc(Cl)cc3n3nnnc23)cc1 | inactive: -0.656% |
| CCOC(=O)N1CCc2c(sc(NCc3cccc(F)c3)c2C(=O)Nc2ccc(OC)cc2)C1 | inactive: -0.22% |
| COC(=O)CC1Oc2ccc(F)cc2-n2cc(-c3ccc(C)cc3)nc21 (stereo unspecified) | inactive: 8.94% |
| COc1cc(NC(=O)CCn2c(=O)oc3ccccc32)cc(OC)c1OC | inactive: 5.7% |
| CSc1ccc(NC(=O)C2CCN(c3ncccn3)CC2)cc1 | inactive: 3.74% |
| CCN1CCN(c2ncc3c(n2)CCN(CC(C)C)C3)CC1 | inactive: -12% |
| COc1ccc(N(Cc2cccs2)C(=O)COc2cccc(C)c2C)cc1 | inactive: -17.4% |

| SMILES | activation |
| --- | --- |
| Cc1cccc(CC(=O)N2CC(=O)Nc3ccc(C)cc3C2c2ccc(F)cc2)c1 (stereo unspecified) | inactive: -26.3% |
| CCOc1ccc(-n2ccnc2SCC(=O)Nc2cccc3ccccc23)cc1 | inactive: -7.89% |
| COc1ccc(Br)cc1CNC(=O)c1ccc2nc(C(C)C)oc2c1 | inactive: -11.1% |
| NC(=O)NS(=O)(=O)c1ccc(Cl)cc1 | inactive: 39.6% |
| Cc1cc(S(=O)(=O)Nc2ccc3oc4c(c3c2)CCCC4)ccc1Cl | inactive: 49.3% |
| O=C1CN(C(=O)Cc2ccccc2)C(c2ccc(F)cc2)c2cc(Br)ccc2N1 (stereo unspecified) | inactive: -27.5% |
| CCOc1ccc(CCNCc2c(C(=O)O)c(C)n(Cc3ccccc3F)c2C)cc1 | inactive: -21.5% |
| Cc1ccc(S(=O)(=O)N2CCc3cc(C(=O)Nc4ccc(Cl)cc4C)ccc32)cc1 | inactive: 12.9% |
| CCCc1nn2c(=O)cc(COC(=O)c3ccc(NC(=O)COc4ccccc4F)cc3)nc2s1 | inactive: -10.2% |
| COc1ccc(NS(=O)(=O)c2ccc3c(c2)[C@H]2C=CC[C@H]2[C@@H](c2ccc(C(=O)O)cc2)N3)cc1 | inactive: -9.57% |
| Cc1noc(-c2ccc(-c3noc(-c4ccc([N+](=O)[O-])c(C)c4)n3)cc2)n1 | inactive: -4.25% |
| CC(C)c1ccc(N2C(=O)N(Cc3cccc([N+](=O)[O-])c3)c3ccccc3S2(=O)=O)cc1 | inactive: -15.7% |
| CCOc1ccc(NC(=O)[C@@H](c2ccccc2)N2Cc3ccccc3C2=O)cc1 | inactive: -21.4% |
| Cc1cccn2c(=O)c(C(=O)N3CCN(c4ccc(Cl)cc4)CC3)cnc12 | inactive: 0.74% |
| COc1cc(C2C(C(=O)Nc3ccccc3C)=C(C)Nc3nc(SCc4cc(C)ccc4C)nn32)ccc1O (stereo unspecified) | inactive: -26.1% |
| CCN(CC)c1ccc(NC(=O)CCc2c(C)nc3ncnn3c2C)c(C)c1 | inactive: -2.71% |
| O=S(=O)(NCCc1csc2nc(-c3ccccc3)nn12)c1ccc(Oc2ccccc2)cc1 | inactive: 2.36% |
| Cc1ccc(-n2nnnc2CNC(=O)C2CC(=O)N(c3ccccc3)C2)cc1C (stereo unspecified) | inactive: -1.65% |
| CCOC(=O)c1cc2c(=O)n3ccccc3nc2n(Cc2ccco2)c1=NC(=O)c1cccc(Br)c1 | inactive: -20.5% |
| Cc1ccc(Cl)cc1N1CCN(C(=O)c2noc3c2CCCC3)CC1 | inactive: -22% |
| COc1ccc(Cl)cc1NC(=O)Cn1nnc2sc(-c3ccccc3)cc2c1=O | inactive: 2.86% |

| SMILES | activation |
| --- | --- |
| COc1ccc(-c2cc(C(=O)Nc3cc(C)nn3-c3ccccc3)no2)cc1OC | inactive: -12.2% |
| CCCCSc1nc(-c2cccc(OC)c2)nc2c1Cc1c(CO)cnc(C)c1O2 | inactive: 14.1% |
| COc1c2occc2c(OC)c2c(=O)cc(C)oc12 | inactive: 5.2% |
| CC1(C)S[C@@H]2[C@H](NC(=O)Cc3ccccc3)C(=O)N2[C@H]1C(=O)O (tested in a mixture with another compound) | inactive: -0.751% |
| CC1CCCCN1C(=O)CN1CCSc2ccccc21 (stereo unspecified) | inactive: 2.64% |
| CCC(=O)Nc1ccc(CC)cc1-c1nc2ccccc2n(CC(=O)c2ccc(OC)cc2)c1=O | inactive: -8.99% |
| CC(C)C[C@H](NC(=O)CNC(=O)[C@H](Cc1ccc(O)cc1)NC(=O)[C@H](CO)NC(=O)[C@H](Cc1c[nH]c2ccccc12)NC(=O)[C@H](Cc1cnc[nH]1)NC(=O)[C@@H]1CCC(=O)N1)C(=O)N[C@@H](CCCN=C(N)N)C(=O)N1CCC[C@H]1C(=O)NCC(N)=O (stereo in doubt) | inactive: 13.5% |
| Cc1c(Cl)cccc1NC(=O)c1oc2ccc(S(=O)(=O)N3CCC4(CC3)OCCO4)cc2c1C | inactive: 35.3% |
| O=S(=O)(NCc1ccc(F)cc1)c1ccc2[nH]c3c(c2c1)CCCC3 | active: 118% |
| CCc1nonc1NC(=O)c1oc2cc(C)c(C)cc2c1C | inactive: 41.9% |
| Cc1ccc(-c2cc(NC(=O)c3cccc(C)c3)on2)cc1 | inactive: 39.4% |
| COc1ccc(C(=O)Oc2ccc(C(c3c(C)[nH][nH]c3=O)c3c(C)[nH][nH]c3=O)cc2)cc1 | inactive: -31% |
| COc1ccc(NC(=O)C2Cc3ccccc3CN2S(=O)(=O)c2ccccc2)cc1OC (stereo unspecified) | inactive: -7% |
| CCc1cccc(-n2c(=O)c3cccnc3n2CC(=O)Nc2ccc(OC)c(Cl)c2)c1 | inactive: -5.98% |
| CCc1ccccc1NC(=O)CCCn1c(=O)c2cccn2c2ccccc21 | inactive: -22.4% |
| COc1cccc(-n2c(SCC(N)=O)nc3c(oc4ccccc43)c2=O)c1 | inactive: -15.2% |
| COc1cccc(CNC(=O)c2cc(=O)[nH]c3ccc(S(=O)(=O)N4CCCC4)cc23)c1 | inactive: 43.8% |
| Cc1ccccc1NC(=O)CCn1nc(-c2ccc(Cl)cc2)c2ccccc2c1=O | inactive: -14.7% |
